Reference: PubChem BioAssay (NCI)
Several values for one entry are separate records, joined by “and”; a condition that tells them apart may be missing. Identical values can stand only once.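 Values below derive from 48-hour exposures of cells grown in 96-well plates, with endpoints linearly interpolated between the two concentrations bracketing the appropriate inhibition level. At the GI50, growth is halved. TGI marks complete inhibition of growth.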

Test system: NCI-H322M lung
Experiment: growth of human tumour cells (NCI), 48 h

SMILES | TGI | GI50
COc1cc(C2SC(C)C(=O)N2c2ccc(-c3csc(NS(=O)(=O)c4ccc(Cl)c(OC)c4)n3)cc2)ccc1O (configuration not stated) | > 100 µM | 
COC(=O)/C(=N/Nc1cccc(Cl)c1)C(C(=O)C(=O)Nc1cccc(Cl)c1C)c1nc2ccccc2nc1C (configuration not stated) | > 100 µM | 
CC1=C(/C=C/C(C)=C/C=C/C(C)=C/C=N/NC(=S)NC(=S)N/N=C/C=C(C)/C=C/C=C(C)/C=C/C2=C(C)CCCC2(C)C)C(C)(C)CCC1 | 14.6 µM and 13.3 µM | 6.5 µM and 5.83 µM
O=C(O)C1CCCCC1c1c2ccc(=O)c(O)c-2oc2c(O)c(O)ccc12 (configuration not stated) | > 100 µM | 
CCCCCCCCCCCCc1ccc(S(=O)(=O)O)cc1.[Zn+2] | > 100 µM | 
COc1cc(CNc2cnc3cc(N)ccc3n2)cc(OC)c1OC | > 100 µM | 
c1ccc(CN[C@]23C4C5CC6C7C5C2C7[C@@](NCc2ccccc2)(C64)N3Cc2ccccc2)cc1 (some centres not stated) | > 100 µM | 
CC1(C)C(=O)c2ccccc2OC1N1CCN(C2Oc3ccccc3C(=O)C2(C)C)CC1 (configuration not stated) | > 100 µM | 
COc1cccc(-c2ccc3c(c2)C2CCN(Cc4ccccc4)C3C2)c1 (configuration not stated) | 44.2 µM | 18.2 µM
COc1ccc(/C=c2\sc3n(c2=O)C2C(NN=3)N(C)C(=O)N2C)cc1 (configuration not stated) | > 100 µM | 0.506 µM
C(=N\Nc1ccc(-c2nc3ccccc3[nH]2)cc1)/c1c(-c2ccc(Cc3ccccc3)cc2)[nH]c2ccccc12 | > 87.1 µM | 
Cc1cc(Nc2nc(-c3cccnc3)nc3ccccc23)n[nH]1 | > 92.1 µM | 2.74 µM
CC(=O)OC1=CC2=CC[C@H]3[C@@H]4CCC(=O)[C@@]4(C)CC(=O)[C@]3(S)[C@@]2(C)CC1 | > 100 µM | 
COc1cccc(-c2nn(-c3ccccc3)cc2-c2ccnc(NCCNC(=O)Nc3cccc(C(F)(F)F)c3)c2)c1 | 7.01 µM | 1.79 µM
O=C(CCCCCCCCC(=O)N1C(=O)CC(=O)N(c2ccccc2)C1=S)N1C(=O)CC(=O)N(c2ccccc2)C1=S | > 100 µM | 
COc1ccc(C(c2ccc(OCCN(C)C)cc2)c2cc3ccccc3c3ccccc23)cc1 (configuration not stated) | 2.98 µM | 1.6 µM
C=CCc1cc(-c2cc(CC=C)c(O)c(CN(CC)CC)c2)cc(CN(CC)CC)c1O | > 100 µM | 
Brc1ccc2c3c1[C@H]1O[C@H]1c1cccc(c1-3)[C@@H]1O[C@H]21 | 30.1 µM | 
Brc1ccc2[nH]cc(-c3nc(-c4c[nH]c5ncccc45)cs3)c2c1 | 18.7 µM | 4.12 µM
CN(COC(=O)c1ccccc1)c1nc(N(C)COC(=O)c2ccccc2)nc(N(C)COC(=O)c2ccccc2)n1 | > 100 µM | 
O=C(CC1(O)C(=O)Nc2ccc(Br)cc21)c1ccc(Cl)cc1Cl (configuration not stated) | > 100 µM | 
COc1cccc(/C=N/NC(=S)NC2CC3CCC2C3)c1O (configuration not stated) | 42 µM | 15.6 µM
O=c1cc(NNc2cccc(F)c2)[nH]c(=O)[nH]1 | > 100 µM | 

SMILES | TGI | GI50
S=c1nc(COc2ccc(Cl)cc2Cl)[nH][nH]1 | > 100 µM | 
COc1cccc2c1-c1c(c3ccc([N+](=O)[O-])cc3c(=O)n1CCCN)C2=O | 4.76 µM | 1.83 µM
Cc1cn(CCCCCCC2=NCCCN2)c(=O)[nH]c1=O | > 100 µM | 
Oc1ccc(O)c(-c2cc(-c3ccc(Cl)cc3)nn2-c2ccccc2)c1 | 21.7 µM | 6.07 µM
S=C(Nc1ccc(N=Nc2ccccc2)cc1)SCc1ccccc1 | 26.9 µM | 
O=C(CN1CCN(c2cc3c(cc2F)c(=O)c(C(=O)O)cn3C2CC2)CC1)Nc1nc(-c2ccc(Cl)cc2)cs1 | > 100 µM | 4 µM
COc1ccc(S(=O)(=O)NC2=NCCN2C(=S)SN2CCn3c2nsc3=S)cc1 | 92.9 µM | 32.5 µM
CSc1cc(-c2ccccn2)nc(-c2ccccn2)c1 | 4.88 µM | 
O=[N+]([O-])c1ccc(N/N=C/CC(O)(C(F)(F)F)C(F)(F)F)c([N+](=O)[O-])c1 | > 10 µM | 
CC1=NN(C(=O)CC(=O)Nc2ccccc2Cl)C(=O)C1N=Nc1ccc(S(=O)(=O)c2ccc(N=NC3C(=O)N(C(=O)CC(=O)Nc4ccccc4Cl)N=C3C)cc2)cc1 (configuration not stated) | > 100 µM | 
CCCCCCCC(CC(=O)NC(CO)C(=O)NC(CO)CC(C)C)OC(=O)CC(CCCCCCC)OC(=O)CC(CCCCCCC)OC1OC(C)C(O)C(OC2OC(C)C(O)C(O)C2OC(C)=O)C1O (configuration not stated) | 23.4 µM | 
C=C1C(=O)O[C@H]2[C@H]1CC/C(COC(=O)CCSCCC(=O)OC/C1=C/CC[C@@]3(C)O[C@H]3[C@H]3OC(=O)C(=C)[C@@H]3CC1)=C\CC[C@@]1(C)O[C@@H]21 | 12.3 µM | 3.9 µM
CC(C)(C)c1ccc(OC(=O)Nc2ccc(O)c(C(=O)O)c2)cc1 | > 100 µM | 
CCC(c1ccc(OC)cc1)C(CC)c1ccc(O)c(CN2CCN(C)CC2)c1 (configuration not stated) | 17.2 µM | 5.62 µM
COc1ccc2c(C3(c4cn(C)c5cc(OC)ccc45)C(=O)Nc4ccc(Cl)cc43)cn(C)c2c1 | > 100 µM | 2.56 µM
CSC1C(=O)Nc2ccc3ccccc3c21 (configuration not stated) | > 100 µM | 
CCn1c(SC(C)C(=O)c2c(C)n(C)n(-c3ccccc3)c2=O)nc2ccccc2c1=O (configuration not stated) | > 100 µM | 
CCOC(=O)c1cc(I)c(-c2cc(C)no2)n1C | > 100 µM | 
N#CC1CCCCOCCOCCOCCOCCOCCCCCC1=O (configuration not stated) | > 100 µM | 
Cc1cc(S(=O)(=O)/N=C/N(C)C)c(SC(=O)c2ccc(Cl)cc2)cc1Cl | > 100 µM | > 100 µM
CC(C)CCCC(C)[C@H]1CC[C@H]2[C@@H]3CC[C@H]4C[C@@H](CCC=C(c5cc(Cl)c(O)c(C(=O)OC(C)C)c5)c5cc(Cl)c(O)c(C(=O)OC(C)C)c5)CC[C@]4(C)[C@H]3CC[C@]12C (some centres not stated) | > 50 µM | 
O=C1c2ccccc2C(=O)c2sc(Nc3ccccc3C(F)(F)F)nc21 | 27.7 µM | 
Clc1ccc(-c2nnc(-c3cccc4ccccc34)o2)cc1Cl | > 100 µM | 

SMILES | TGI | GI50
CCCCCc1cc2cc3c(c(O)c2c(=O)[nH]1)C1(CCC3)C(O)=c2c(=O)c3c(=O)cc(OC)c(=O)c=3c(=O)c2=C1O (configuration not stated) | 5.57 µM | 
CN=C(NC(=S)N(C)C)N(C)C | > 100 µM | 
CC(=O)NC1C(OCc2ccccc2)OC(CO)C(O)C1OC(C)C(=O)N[C@@H](C)C(=O)N[C@H](CCC(=O)OCCNc1c2ccccc2nc2cccc([N+](=O)[O-])c12)C(N)=O (some centres not stated) | 0.0127 µM | 
CC(=O)N1N=C(c2ccc(Nc3ccnc4cc(Cl)ccc34)cc2)CC1c1ccc(Cl)cc1 (configuration not stated) | > 100 µM | > 100 µM
O=c1[nH]c2ccccc2c(O)c1/C=N/C(=S)NCc1ccccc1 | > 100 µM | 
Cc1ccc(-c2c3c(nn2-c2ccc(S(N)(=O)=O)cc2)-c2ccccc2C3)cc1 | 41.2 µM | 17.8 µM
CCN(Cc1ccc(F)cc1)c1ccc(CO)c(C)c1 | 47.2 µM | 15 µM
CCOC(=O)C(CC(C)C)NC(=O)CSc1nnc(COc2ccc(Cl)cc2)n1-c1ccccc1 (configuration not stated) | 32.8 µM | 
COc1cccc(CSCC(=O)O)c1 | > 100 µM | 
Nc1nc(N)c(C=Nc2ccc(Br)cc2)c(Nc2ccc(Br)cc2)n1 | 22.5 µM | 5.48 µM
CC1(C)O[C@@H](CCl)C[C@H](C#N)O1 | > 100 µM | 
O=C(NC1CCCCC1)c1cc2ccccc2cc1O | > 100 µM | 
C[N+](C)(C)CC1CCC/C1=N/O (configuration not stated) | 3.5 µM | 
O=C1C=CC(=C(c2ccc(O)cc2)c2ccc(O)cc2)C=C1 | 28.8 µM | 
O=C1c2ccccc2C(=O)c2c(O)c(NCCCNCCO)cc(O)c21 | 19.8 µM | 
CN(C)c1nnnn1-c1c(N)n(C)c(=O)n(C)c1=O | > 100 µM | 
CC(=O)OCC1OC(OCCCCCCO)C(OC(C)=O)C(OC(C)=O)C1OC(C)=O (configuration not stated) | > 100 µM | 
C(/Cc1ccc2c(c1)OCO2)=N\NC1=NCCN1 | > 100 µM | 
COC12CCCN1c1ccn(Cc3ccccc3)c(=O)c1C2=O (configuration not stated) | > 100 µM | 
COc1cc2oc(=O)cc(C)c2cc1O | > 100 µM | 
O=C(O)C[C@@H]1[C@@H](O)[C@@H](O)CN2C(=O)c3ccccc3[C@H]12 | > 100 µM | 
CCOC(=O)c1c(C)n(Cc2ccccc2)c2c1cc(O)c1[nH]c(Cc3ccccc3)nc12 | > 100 µM | 31.2 µM
Cn1c(=O)c(NC(=O)C(Cl)(Cl)Cl)nc2ccccc21 | > 100 µM | 

SMILES | TGI | GI50
CCCCCCCCCCCCCCCCNCCCN(C)CCCN | 30.5 µM | 
ON(Cc1ccccc1)C(=S)c1ccccc1 | > 77.8 µM | 
N[C@@H]1C(=O)N2C(C(=O)OC(c3ccccc3)c3ccccc3)=C(CCl)CS[C@H]12 | > 100 µM | > 100 µM
O=C(O)C1CC2(C1)CC(C(=O)O)C2 (configuration not stated) | > 100 µM | 
COC(=O)C1C=CCON2CCc3c(n(C)c4ccccc34)C12 (configuration not stated) | > 100 µM | 
CC(=O)c1ccccc1NCC(=O)Nn1cnc2ccc(S(=O)(=O)Nc3ccccc3C(C)=O)cc2c1=O | > 100 µM | 
CCOP(=O)(OCC)C(c1ccccc1)N(C(=O)NC(F)(F)F)c1cccc(F)c1 (configuration not stated) | > 100 µM | 
CCOc1cc(Br)c(C(C)NC(=O)c2cccc(OC)c2)cc1OCC (configuration not stated) | > 100 µM | 56.7 µM
Nc1c(O)cc(N=C2C(=O)C=CC=C2C(=O)O)c(O)c1C(=O)O | > 100 µM | 
COc1ccc(-c2ccc(-c3ccc(C(=N)N)nc3)s2)cc1Cl | 3.04 µM | 1.67 µM
COc1cc(C2=NNC(=O)c3ccccc3N2c2nc(-c3cccs3)nc3ccc(Br)cc23)cc(OC)c1OC | > 100 µM | 
Cc1ccc(C(NC(=O)c2ccccc2)c2ccc3cccnc3c2O)cc1 (configuration not stated) | 26.5 µM | 0.304 µM
Cc1nc2c(o1)C(=Nc1ccccc1)c1ccccc1C2=O | 28.6 µM | 
COc1cc(NS(C)(=O)=O)ccc1Nc1c2ccccc2nc2ccccc12 |  | 11.1 µM and 6.68 µM and 6.5 µM
O=C(NCCO)c1ccc([N+](=O)[O-])cc1 | > 100 µM | 
CNC(=S)N/N=C(\C(=N/NC(=S)NC)c1ccccn1)c1ccccn1 | > 100 µM | 
COC(=O)C1=C(OC(=O)/C=C/c2ccccc2)C(C(=O)OC)[C@@]2(O)[C@@H](C(=O)OC)[C@H](C)C[C@@H]1[C@@H]2C(=O)OC (some centres not stated) | 79.8 µM | 
Cc1cn(C2CC(N)C(C(=O)NCC(=O)O)O2)c(=O)[nH]c1=O (configuration not stated) | > 100 µM | 
O=C(c1ccccc1)n1cc(-c2ccccc2)c2c(=O)[nH]cnc21 | > 100 µM | 
O=c1cc(-c2c[nH]c3ccccc23)[nH]c2cc3c(cc12)OCO3 | > 100 µM | 
COc1cc(O)c2c(=O)c3c(C)cccc3n(C)c2c1 | > 10 µM | 
Fc1ccc(N=C/C=C/Nc2ccc(F)cc2)cc1 | 25.9 µM | 
CN(CCO)CCCC1COc2ccccc2O1 (configuration not stated) | > 100 µM | 
